From patent US11618753B2 (priority 2018, dated 2023)

System: MLKL phosphorylation, HT29-L23 human colorectal adenocarcinoma cells
Test: cells
Conditions: read-out: pMLKL HCS Cell Assay (IC50, uM)

SMILES	IC50 [µM]
Nc1ncnn2c(-c3cccc(C(=O)N[C@@H]4CN(C(=O)C5CCC(F)(F)CC5)C[C@@H]4F)c3)cc(C(F)(F)F)c12 [Example 105, 3-[4-amino-5-(trifluoromethyl)pyrrolo[2,1-f][1,2,4]triazin-7-yl]-N-[(3R,4S)-1-(4,4-difluorocyclohexanecarbonyl)-4-fluoropyrrolidin-3-yl]benzamide]	0.072
COc1ncc(-c2cc(C(F)(F)F)c3c(N)ncnn23)cc1C(=O)N[C@@H]1CN(C(=O)CC2CCCC2)C[C@@H]1F [Example 1203, 5-[4-amino-5-(trifluoromethyl)pyrrolo[2,1-f][1,2,4]triazin-7-yl]-N-[(3R,4S)-1-(2-cyclopentylacetyl)-4-fluoropyrrolidin-3-yl]-2-methoxypyridine-3-carboxamide]	0.025
COc1ncc(-c2cc(Cl)c3c(N)ncnn23)cc1C(=O)N[C@@H]1CN(C(=O)[C@@](C)(O)C(F)(F)F)C[C@@H]1F [Example 1594, 5-{4-amino-5-chloropyrrolo[2,1-f][1,2,4]triazin-7-yl}-N-[(3R,4S)-4-fluoro-1-[(2R)-3,3,3-trifluoro-2-hydroxy-2-methylpropanoyl]pyrrolidin-3-yl]-2-methoxypyridine-3-carboxamide]	0.0061
COc1ncc(-c2cc(CN3CCC(F)(F)CC3)c3c(N)ncnn23)cc1C(=O)N[C@@H]1CN(C(=O)c2ncccc2F)C[C@@H]1F [Example 1269, 5-{4-amino-5-[(4,4-difluoropiperidin-1-yl)methyl]pyrrolo[2,1-f][1,2,4]triazin-7-yl}-N-[(3R,4S)-4-fluoro-1-(3-fluoropyridine-2-carbonyl)pyrrolidin-3-yl]-2-methoxypyridine-3-carboxamide]	0.003
Nc1ncnn2c(-c3cccc(C(=O)NCCC(O)c4ccccc4)c3)cc(C(F)(F)F)c12 (stereo not shown) [Example 72, 3-[4-amino-5-(trifluoromethyl)pyrrolo[2,1-f][1,2,4]triazin-7-yl]-N-(3-hydroxy-3-phenylpropyl)benzamide]	0.074
COc1ncc(-c2cc(CN3CCC(C(F)(F)F)CC3)c3c(N)ncnn23)cc1C(=O)N[C@@H]1CN(C(=O)c2ccccc2F)C[C@@H]1F [Example 1632, 5-(4-amino-5-{[4-(trifluoromethyl)piperidin-1-yl]methyl}pyrrolo[2,1-f][1,2,4]triazin-7-yl)-N-[(3R,4S)-4-fluoro-1-(2-fluorobenzoyl)pyrrolidin-3-yl]-2-methoxypyridine-3-carboxamide]	0.0041
CC(C)CC(=O)N1C[C@H](F)[C@H](NC(=O)c2cc(-c3cc(C(F)(F)F)c4c(N)ncnn34)ccc2OC(F)(F)F)C1 [Example 1047, 5-[4-amino-5-(trifluoromethyl)pyrrolo[2,1-f][1,2,4]triazin-7-yl]-N-[(3R,4S)-4-fluoro-1-(3-methylbutanoyl)pyrrolidin-3-yl]-2-(trifluoromethoxy)benzamide]	0.091
CCc1ccc(-c2cc(C(F)(F)F)c3c(N)ncnn23)cc1C(=O)N[C@@H]1CN(C(=O)C2CC(F)C2)C[C@@H]1F (stereo partly drawn) [Example 969, 5-[4-amino-5-(trifluoromethyl)pyrrolo[2,1-f][1,2,4]triazin-7-yl]-2-ethyl-N-[(3R,4S)-4-fluoro-1-(3-fluorocyclobutanecarbonyl)pyrrolidin-3-yl]benzamide]	0.0082
CC(C)(F)C(=O)N1C[C@H](F)[C@H](NC(=O)c2cc(F)cc(-c3cc(C(F)(F)F)c4c(N)ncnn34)c2)C1 [Example 599, 3-[4-amino-5-(trifluoromethyl)pyrrolo[2,1-f][1,2,4]triazin-7-yl]-5-fluoro-N-[(3R,4S)-4-fluoro-1-(2-fluoro-2-methylpropanoyl)pyrrolidin-3-yl]benzamide]	0.029
COc1ncc(-c2cc(C(F)(F)F)c3c(N)ncnn23)cc1C(=O)N[C@@H]1CN(C(=O)OC(C)CC(F)(F)F)C[C@@H]1F (stereo partly drawn) [Example 1441, 4,4,4-trifluorobutan-2-yl (3R,4S)-3-{5-[4-amino-5-(trifluoromethyl)pyrrolo[2,1-f][1,2,4]triazin-7-yl]-2-methoxypyridine-3-amido}-4-fluoropyrrolidine-1-carboxylate]	0.0075
COc1ncc(-c2cc(C(F)(F)F)c3c(N)ncnn23)cc1C(=O)N1CCOC(Cc2ccccc2)C1 (stereo not shown) [Example 139, 7-[5-(2-benzylmorpholine-4-carbonyl)-6-methoxypyridin-3-yl]-5-(trifluoromethyl)pyrrolo[2,1-f][1,2,4]triazin-4-amine]	0.035
COc1ncc(-c2cc(C(F)(F)F)c3c(N)ncnn23)cc1C(=O)N[C@@H]1CN(C(=O)C2(C(F)(F)F)CCNC2)C[C@@H]1F (stereo partly drawn) [Example 1680, 5-(4-amino-5-(trifluoromethyl)pyrrolo[2,1-f][1,2,4]triazin-7-yl)-N-((3R,4S)-4-fluoro-1-(3-(trifluoromethyl)pyrrolidine-3-carbonyl)pyrrolidin-3-yl)-2-methoxynicotinamide]	0.159
Cc1ccc(-c2cc(C(F)(F)F)c3c(N)ncnn23)cc1C(=O)N[C@@H]1CN(C(=O)c2c(F)cc(F)cc2F)C[C@@H]1F [Example 1024, 5-[4-amino-5-(trifluoromethyl)pyrrolo[2,1-f][1,2,4]triazin-7-yl]-N-[(3R,4S)-4-fluoro-1-(2,4,6-trifluorobenzoyl)pyrrolidin-3-yl]-2-methylbenzamide]	0.00075
C[C@@](O)(C(=O)Nc1ncnn2c(-c3cc(F)c(Cl)c(C(=O)N[C@@H]4CN(C(=O)[C@@](C)(O)C(F)(F)F)C[C@@H]4F)c3)cc(C(F)(F)F)c12)C(F)(F)F [Example 564, 2-chloro-3-fluoro-N-((3R,4S)-4-fluoro-1-((R)-3,3,3-trifluoro-2-hydroxy-2-methylpropanoyl)pyrrolidin-3-yl)-5-(4-((R)-3,3,3-trifluoro-2-hydroxy-2-methylpropanamido)-5-(trifluoromethyl)pyrrolo[2,1-f][1,2,4]triazin-7-yl)benzamide]	0.039
Cc1nc(C)c(-c2cc(C(F)(F)F)c3c(N)ncnn23)cc1C(=O)N[C@@H]1CN(C(=O)C2CC2(F)F)C[C@@H]1F (stereo partly drawn) [Example 525, 5-[4-amino-5-(trifluoromethyl)pyrrolo[2,1-f][1,2,4]triazin-7-yl]-N-[(3R,4S)-1-(2,2-difluorocyclopropanecarbonyl)-4-fluoropyrrolidin-3-yl]-2,6-dimethylpyridine-3-carboxamide]	0.14
Cc1cc(F)c(-c2cc(C(F)(F)F)c3c(N)ncnn23)cc1C(=O)N[C@@H]1CN(C(=O)C2(F)CCC2)C[C@@H]1F [Example 805, 5-[4-amino-5-(trifluoromethyl)pyrrolo[2,1-f][1,2,4]triazin-7-yl]-4-fluoro-N-[(3R,4S)-4-fluoro-1-(1-fluorocyclobutanecarbonyl)pyrrolidin-3-yl]-2-methylbenzamide]	0.0024
COc1ncc(-c2cc(C(F)(F)F)c3c(N)ncnn23)cc1C(=O)N[C@@H]1CN(C(=O)c2ccc(F)c(F)c2)C[C@@H]1F [Example 305, 5-[4-amino-5-(trifluoromethyl)pyrrolo[2,1-f][1,2,4]triazin-7-yl]-N-[(3R,4S)-1-(3,4-difluorobenzoyl)-4-fluoropyrrolidin-3-yl]-2-methoxypyridine-3-carboxamide]	0.018
COc1ncc(-c2cc(C(F)(F)F)c3c(N)ncnn23)cc1C(=O)N1CCCC(Cc2ccc(Cl)cc2)C1 (stereo not shown) [Example 132, 7-(5-{3-[(4-chlorophenyl)methyl]piperidine-1-carbonyl}-6-methoxypyridin-3-yl)-5-(trifluoromethyl)pyrrolo[2,1-f][1,2,4]triazin-4-amine]	0.075
COc1ccc(-c2cc(C(F)(F)F)c3c(N)ncnn23)cc1C(=O)N[C@@H]1CN(C(=O)C2CCC(F)(F)CC2)C[C@@H]1F [Example 1129, 5-[4-amino-5-(trifluoromethyl)pyrrolo[2,1-f][1,2,4]triazin-7-yl]-N-[(3R,4S)-1-(4,4-difluorocyclohexanecarbonyl)-4-fluoropyrrolidin-3-yl]-2-methoxybenzamide]	0.037
Cc1cc(F)c(-c2cc(C(F)(F)F)c3c(N)ncnn23)cc1C(=O)N[C@@H]1CN(C(=O)c2ccc(F)cc2)C[C@@H]1F [Example 792, 5-[4-amino-5-(trifluoromethyl)pyrrolo[2,1-f][1,2,4]triazin-7-yl]-4-fluoro-N-[(3R,4S)-4-fluoro-1-(4-fluorobenzoyl)pyrrolidin-3-yl]-2-methylbenzamide]	0.0062
Cc1cc(C(=O)N2C[C@H](F)[C@H](NC(=O)c3cc(-c4cc(C(F)(F)F)c5c(N)ncnn45)ccc3C)C2)n(C)n1 [Example 1033, 5-[4-amino-5-(trifluoromethyl)pyrrolo[2,1-f][1,2,4]triazin-7-yl]-N-[(3R,4S)-1-(1,3-dimethyl-1H-pyrazole-5-carbonyl)-4-fluoropyrrolidin-3-yl]-2-methylbenzamide]	0.097
COc1ncc(-c2cc(C(C)=O)c3c(N)ncnn23)cc1C(=O)N[C@@H]1CN(C(=O)[C@@](C)(O)C(F)(F)F)C[C@@H]1F [Example 1592, 5-{5-acetyl-4-aminopyrrolo[2,1-f][1,2,4]triazin-7-yl}-N-[(3R,4S)-4-fluoro-1-[(2R)-3,3,3-trifluoro-2-hydroxy-2-methylpropanoyl]pyrrolidin-3-yl]-2-methoxypyridine-3-carboxamide]	0.0061
CCOc1ccc(-c2cc(C(F)(F)F)c3c(N)ncnn23)cc1C(=O)N[C@@H]1CN(C(=O)C(C)(C)F)C[C@@H]1F [Example 1105, 5-[4-amino-5-(trifluoromethyl)pyrrolo[2,1-f][1,2,4]triazin-7-yl]-2-ethoxy-N-[(3R,4S)-4-fluoro-1-(2-fluoro-2-methylpropanoyl)pyrrolidin-3-yl]benzamide]	0.114
CC(C(=O)N1C[C@H](F)[C@H](NC(=O)c2cc(-c3cc(C(F)(F)F)c4c(N)ncnn34)c(F)cc2F)C1)C(F)(F)F (stereo partly drawn) [Example 787, 5-[4-amino-5-(trifluoromethyl)pyrrolo[2,1-f][1,2,4]triazin-7-yl]-2,4-difluoro-N-[(3R,4S)-4-fluoro-1-(3,3,3-trifluoro-2-methylpropanoyl)pyrrolidin-3-yl]benzamide]	0.012
COCCOC(=O)N1C[C@H](F)[C@H](NC(=O)c2cc(-c3cc(C(F)(F)F)c4c(N)ncnn34)cnc2OC)C1 [Example 1419, 2-methoxyethyl (3R,4S)-3-{5-[4-amino-5-(trifluoromethyl)pyrrolo[2,1-f][1,2,4]triazin-7-yl]-2-methoxypyridine-3-amido}-4-fluoropyrrolidine-1-carboxylate]	0.099
